# Data as given in PubChem BioAssay AID686970 (National Center for Advancing Translational Sciences (NCATS), 2013).
# The campaign covered roughly 360,000 compounds. About 6,000 (1.7%) were called active. Inconclusive results, whose numbers are uncertain, are shown with a selection of clear calls. The call rests on the fitted dose curve; in most records, active means well fitted cell-killing curve with a large enough effect; inconclusive means small, poorly fitted or top-dose-only effect, or effect the other way; inactive means flat fitted curve, though single readings scatter. Potencies of inconclusive entries are left out as doubtful fits.
# Assay: qHTS for induction of synthetic lethality in tumor cells producing 2HG: qHTS for the HT-1080-NT fibrosarcoma cell line;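 further: NT is the 2HG producing partner of a matched IDH1 knockdown line; nearly all actives have a fitted effect of over 55% in size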;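 on activity, negative = less viability: 0% = DMSO-treated cells and -100% = media-only wells without cells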
# Conditions: HT-1080-NT fibrosarcoma viability, CellTiter-Glo ATP luminescence, 48 h; activity, negative = less viability: at 46.1 µM (top of the series) unless noted
# Outline: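 Compounds were tested in concentration-response format on HT-1080-NT cells for 48 hours at 37 degrees C. Cell viability came from CellTiter-Glo luminescence; curves were classified by r2, response magnitude and activity.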
# Potency means the concentration at half of the fitted maximal effect; tags describe the fitted curve by direction and shape.
SMILES,Potency,"activity, negative = less viability"
COc1ccc2cc(C(=O)C3CCCN(Cc4cccc(C)n4)C3)ccc2c1 (configuration not stated),"inconclusive [cytotoxic, single point]",–
Cc1ccc2[nH]c3c(c2c1)CCc1cn[nH]c1-3,"inconclusive [cytotoxic, single point]",–
CS(=O)(=O)c1ccc(Cl)c(NC(=O)CCl)c1,"inconclusive [cytotoxic, partial curve]",–
COc1ccc(NC(=O)CSc2ncnc3c2sc2ccccc23)c(OC)c1,inactive,–
CC(C)N(CC(=O)Nc1ccc(Cl)cc1C(F)(F)F)C(=O)CCl,active: 6.51 µM,–
CC(=O)N1CCCC1(C(=O)O)c1ccccc1 (configuration not stated),inactive,–
COc1cc(/C=C2/SC(=S)NC2=O)ccc1OS(=O)(=O)c1ccc(C)cc1,"inconclusive [cytotoxic, partial curve]",–
CC1(c2ccc(OC(F)F)cc2)NC(=O)N(CC(=O)Nc2cccc(F)c2)C1=O (configuration not stated),"inconclusive [cytotoxic, single point]",–
CCOc1ccc(C(=O)NC(=S)Nc2ccccc2N2CCOCC2)cc1Br,inactive,–
O=C(Cn1cc(COc2ccc(C(=O)c3ccccc3)cc2)nn1)c1ccc(O)cc1,–,inconclusive: -14.2% [cytotoxic]
Cc1cc(Cl)ccc1-c1nc(NCCN(C)C)nc2ccsc12,active: 20.6 µM,–
Cc1cc2c(cc1C)N(C(=O)CSc1nncn1C)C(C)(C)c1ssc(=S)c1-2,"inconclusive [cytotoxic, single point]",–
Cc1cc(C(=O)Nc2ccc(Cl)cc2)c(C)n1-c1ccccc1,"inconclusive [cytotoxic, partial curve]",–
COc1ccc2cc(-c3cc(C(=O)O)c4ccccc4n3)ccc2c1,"inconclusive [cytotoxic, single point]",–
CCOC(=O)N1CCC(NC(=O)CNS(=O)(=O)c2ccc(Br)s2)CC1,"inconclusive [cytotoxic, single point]",–
CCn1cc([N+](=O)[O-])c(C(=O)Nc2nc(-c3ccc(C)c(C)c3)c(C)s2)n1,"inconclusive [cytotoxic, single point]",–
Cc1ccc(C)c(N2CCN(C(=O)CCC(=O)N3CCOc4ccc(Cl)cc43)CC2)c1,"inconclusive [cytotoxic, single point]",–
Cc1cccc(C2=NN(c3ccc(Br)cc3)[C@@H](C(=O)N3CCOC3=O)[C@@H]2C)c1,"inconclusive [cytotoxic, partial curve]",–
COc1ccc(C(=O)/C=C/Sc2nc3ccccc3o2)cc1,–,inconclusive: -6.51% [cytotoxic]
O=C(NCCCN1CCC(Cc2ccccc2)CC1)c1ccc2nc(N3CCOCC3)sc2c1,"inconclusive [cytotoxic, single point]",–
C#CCOCCOCCOCCNc1nc(N2CCN(C(=O)CCCCCCCCCCNC(=O)[C@@H](CCC(=O)O)n3cc(CCCCCN)nn3)CC2)nc(N2CCN(C(=O)CCCCCCCCCCNC(=O)[C@@H](CCC(=O)O)n3cc(CCCCCN)nn3)CC2)n1,inactive,–
COc1ccc(NC(=O)C2Cc3c(-c4ccc5c(c4)OCO5)ccnc3O2)cc1 (configuration not stated),–,inconclusive: -35.3%
COC(=O)CC1(c2cccc3ccccc23)C(=O)c2ccccc2C1=O,"inconclusive [cytotoxic, partial curve]",–

SMILES,Potency,"activity, negative = less viability"
COc1cc2sc(-c3ccccc3OC)c(-c3ccc(OCCN4CCCCC4)cc3)c2cc1OC,"inconclusive [cytotoxic, single point]",–
CCN1/C(=C\c2ccc3ccccc3[n+]2CC)Sc2cc(C)ccc21,"inconclusive [cytotoxic, partial curve]",–
CCNC(=S)N=Nc1c(O)n(Cc2ccc(Cl)cc2)c2ccccc12,–,inconclusive: -6.67% [cytotoxic]
CN(C)c1ncnc2c1ncn2[C@H]1CN(Cc2ccccc2)C[C@@H](CO)O1,"inconclusive [rising, single point]",–
Cc1cccc(C)c1NC(=O)C(c1ccccc1)N1CCN(c2ccc(F)cc2)CC1 (configuration not stated),inactive,–
CC1(C)N=C(N)N=C(N)N1c1ccc(OCCCOc2ccccc2)c(Cl)c1,"inconclusive [cytotoxic, full curve, poor fit]",–
CC1(C)Cc2c(cnn2-c2ccccc2)-c2c1c1ccccc1n2CC(O)CCl (configuration not stated),active: 18.4 µM,–
Cc1ccc(C)c(N2CCN(CCN3CCCCC3)CC2)c1,inactive,–
COc1ccc(C(CNc2nc(-c3cccnc3)nc3ccccc23)N(C)C)cc1 (configuration not stated),active: 16.4 µM,–
Cc1ccc(C(=O)N2CCN(S(=O)(=O)c3ccccc3)CC2)s1,inactive,–
O=C(Nc1cccc([N+](=O)[O-])c1)Nc1cccc([N+](=O)[O-])c1,"inconclusive [cytotoxic, full curve]",–
Oc1ccc2ccccc2c1/C=N/c1nccs1,"inconclusive [cytotoxic, single point]",–
CC(C)n1cnc2c(NCc3ccccc3)cc(OCC3CCN(C)CC3)cc21,"inconclusive [cytotoxic, single point]",–
CC(C)C[C@H]1CN([C@@H](Cc2ccc(O)cc2)CN2CCC[C@@H]2CN2C(=O)C(=O)NC[C@@H]2Cc2ccccc2)C(=O)C(=O)N1CC1CCCCCC1,"inconclusive [cytotoxic, single point]",–
COc1ccc(OC)c(Nc2c3ccccc3nc3ccccc23)c1,active: 5.8 µM,–
COc1cc(/C=N/N=C(N)N)ccc1OCc1ccc(Cl)cc1,"inconclusive [cytotoxic, single point]",–
Cn1ccc2c(-c3ccccc3F)cc3c(c21)C1CCC3C1 (configuration not stated),inactive,–
COc1cc(C(=O)Nc2nc(OC)c(-c3ccccc3)c(OC)n2)cc(OC)c1OC,"inconclusive [cytotoxic, single point]",–
Cc1ccc(C2CN(CCC(N)=O)C(=O)CO2)cc1 (configuration not stated),inactive,–
Cc1ccc2c(c1)c(N=O)c(O)n2Cc1ccc(Cl)cc1,inactive,–
CC1CCC(C(C)C)C(OC(=O)COC(=O)c2ccc(N)cc2)C1 (configuration not stated),inactive,–
O=C(COc1ccc2oc3c(c2c1)CCCC3)Nc1ccccn1,"inconclusive [cytotoxic, single point]",–
Fc1cccc(Cc2c(C3CCCCC3)nc3ccc(Br)cn23)c1,inactive,–

SMILES,Potency,"activity, negative = less viability"
COC(=O)[C@@]12CCCCN1[C@H](c1ccc(-c3ccc(F)cc3)cc1)[C@H]1C(=O)N(C)C(=O)[C@H]12,inactive,–
CCN(c1ccccc1)S(=O)(=O)c1ccc(C(=O)NCC(=O)Nc2ccc(F)c(F)c2F)cc1,"inconclusive [cytotoxic, single point]",–
COc1ccc(-c2ncccc2O)cc1,inactive,–
COc1cccc(/C=C(/C#N)c2ccc(F)cc2)c1OCc1cccc(C(=O)O)c1,inactive,–
C=C1C(=O)O[C@@H]2C[C@@H](C)[C@@H]3C=CC(=O)[C@@]3(C)[C@@H](OC(C)=O)[C@H]12,active: 6.51 µM,–
OC(c1ccc(Cl)c(F)c1)c1ncc(-c2cccc3ccccc23)[nH]1 (configuration not stated),"inconclusive [cytotoxic, single point]",–
COc1ccc(CC(=O)OCc2cc(=O)n3cc(Br)ccc3n2)cc1OC,"inconclusive [rising, partial curve]",–
Cc1ccccc1Cn1c(CN2CCc3ccccc3C2)nc2c1c(=O)n(C)c(=O)n2C,"inconclusive [cytotoxic, single point]",–
COc1ccc(C(=O)COc2ccc3ccc(=O)oc3c2)c(OC)c1,"inconclusive [cytotoxic, single point]",–
COc1ccc(-c2c(C)c3ccc(O)cc3oc2=O)cc1,inactive,–
CCOc1cc(/C=N/NC(=O)c2cccc([N+](=O)[O-])c2)ccc1OS(=O)(=O)c1ccccc1,"inconclusive [cytotoxic, single point]",–
COc1ccccc1CNCC(O)(c1ccc(Cl)cc1)c1ccc(Cl)cc1,active: 12.6 µM,–
CC(NC(=O)C1CCN(Cc2ccccc2)CC1)c1cccc2ccccc12 (configuration not stated),"inconclusive [cytotoxic, single point]",–
COc1cc2sc(-c3ccccc3OC)c(-c3ccc(O)cc3)c2cc1OC,"inconclusive [cytotoxic, single point]",–
O=C(O)/C=C/c1ccc(S(=O)(=O)Nc2ccccc2C(=O)Nc2ccc(F)cc2)cc1,inactive,–
C[C@@H](CN1C2=NC[C@H](Cc3ccccc3)N2C[C@H]1Cc1ccc(O)cc1)NC(=O)CCC1CCCCC1,"inconclusive [cytotoxic, partial curve]",–
CC1(C(=O)NCc2cccc3ccccc23)CCN1C(=O)C1(c2ccccc2)CCCC1 (configuration not stated),"inconclusive [cytotoxic, single point]",–
CCN(CC)CCNC(=O)c1ccc(NC(=O)c2ccc(Cl)c(S(=O)(=O)N3CCCCCC3)c2)cc1,"inconclusive [cytotoxic, single point]",–
COc1ccc(C(C(=O)NC2CCCC2)N(Cc2ccccc2)C(=O)c2nsc(Cl)c2Cl)cc1 (configuration not stated),"inconclusive [cytotoxic, single point]",–
COc1ccccc1CNc1nc(NCc2cccs2)nc2ccsc12,"inconclusive [cytotoxic, single point]",–
COc1ccc(-c2cc(C(=O)N/N=C/c3cccnc3)c3cc(C)cc(C)c3n2)cc1,"inconclusive [cytotoxic, single point]",–
